# Source: a collection of fitness landscapes (doi:10.1016/j.celrep.2020.107928)
# The full ranking holds about 81,000 sequences; the median of “one-hybrid fitness for binding parS DNA” is about -0.17, and the highest 2% start at about 0.51. The list shows a part of the results.
# B1: Caulobacter ParB omega fusion; a variant is named by its letters at X, in order, B8GW30 (parent)
# chain: MESVVVGEPGMSEGRRGLGRGLSALLGEVDAAPAQAPGEQLGGSREAPIEILQRNPDQPRRTFREEDLEDLSNSIREKGVLQPILVRPSPDTAGEYQIVAGERAWRAAQRAGLKTVPIMVRELDDLAVLEIGIIENVQRADLNVLEEALSYKVLMEKFERTQENIAQTIGKSXSHVANXMRLLXLPDEVQSYLVSGELTAXHARAIAAAADPVALAKQIIEGGLSVRETEALARKAPNLSAGKSKGGRPPRVKDTDTQALESDLSSVLGLDVSIDHRGSTGTLTITYATLEQLDDLCNRLTRGI
# Variants of: B1
# Test: one-hybrid fitness for binding parS DNA (scaled: cognate 1, non-cognate 0); higher = stronger binding
# Conditions: with parS DNA site
# In short: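 Selection: bacterial one-hybrid in E. coli USO, HIS3 reporter with the site 19 bp from the promoter, 48 hours at 37°C on M9-minus-histidine plus 0.1 mM IPTG and 5 mM 3-AT. Libraries were Caulobacter ParB with four randomised specificity codons, sequenced on Illumina before and after selection. Fitness is the rescaled log change in variant-to-wild-type read ratio, anchored to the cognate and non-cognate sites.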
row,Variant,one-hybrid fitness for binding parS DNA
1,SPFQ,≤ 0.2
2,MQDG,≤ 0.2
3,PNKF,≤ 0.2
4,PFTN,≤ 0.2
5,DNDW,≤ 0.2
6,TTHN,≤ 0.2
7,RFKI,≤ 0.2
8,AKEE,≤ 0.2
9,RVCS,1.03
10,AITT,≤ 0.2
11,KSKL,≤ 0.2
12,FYTL,≤ 0.2
13,NIRT,≤ 0.2
14,QHNK,≤ 0.2
15,CCQR,≤ 0.2
16,NIQS,≤ 0.2
17,QQVR,≤ 0.2
18,KGLT,≤ 0.2
19,EMVC,≤ 0.2
20,NCTA,≤ 0.2
21,RVTH,0.22
22,SRYT,≤ 0.2
23,TSEF,≤ 0.2
24,VATC,≤ 0.2

row,Variant,one-hybrid fitness for binding parS DNA
1,RRSY,0.46
2,TRQK,≤ 0.2
3,TGLL,≤ 0.2
4,CPRP,≤ 0.2
5,KQMG,≤ 0.2
6,GFVP,≤ 0.2
7,YKMR,≤ 0.2
8,NPVW,≤ 0.2
9,QLGA,≤ 0.2
10,TQHA,≤ 0.2
11,ARHQ,≤ 0.2
12,GSHT,≤ 0.2
13,EHLT,≤ 0.2
14,AKSL,≤ 0.2
15,RWVM,0.27
16,FIRS,≤ 0.2
17,PMTH,≤ 0.2
18,AMLW,≤ 0.2
19,HMQV,≤ 0.2
20,GAFG,≤ 0.2
21,QIYT,≤ 0.2
22,NNKS,≤ 0.2
23,YVDV,≤ 0.2
24,YKFL,≤ 0.2

row,Variant,one-hybrid fitness for binding parS DNA
1,HPLD,≤ 0.2
2,PAPF,≤ 0.2
3,GASE,≤ 0.2
4,HKKQ,≤ 0.2
5,HNHN,≤ 0.2
6,KCRL,≤ 0.2
7,PVPM,≤ 0.2
8,LLCI,≤ 0.2
9,WMRI,≤ 0.2
10,HSMY,≤ 0.2
11,LTFR,≤ 0.2
12,LQHD,≤ 0.2
13,TFFG,≤ 0.2
14,TTSQ,≤ 0.2
15,DRQY,≤ 0.2
16,HDLG,≤ 0.2
17,RIMA,0.6
18,GSVG,≤ 0.2
19,DTTM,≤ 0.2
20,TAVW,≤ 0.2
21,HGNG,≤ 0.2
22,ATKT,≤ 0.2
23,FSTE,≤ 0.2
24,PVKA,≤ 0.2

row,Variant,one-hybrid fitness for binding parS DNA
1,KHQD,≤ 0.2
2,RPNY,≤ 0.2
3,VYHR,0.253
4,QGGS,≤ 0.2
5,DTGG,≤ 0.2
6,RATF,0.227
7,MTKR,≤ 0.2
8,LLPT,≤ 0.2
9,CYYP,≤ 0.2
10,NCRT,≤ 0.2
11,KPCR,≤ 0.2
12,QPRE,≤ 0.2
13,QYAL,≤ 0.2
14,GMLL,≤ 0.2
15,PPQC,≤ 0.2
16,RLPS,0.86
17,SQPW,≤ 0.2
18,LHPN,≤ 0.2
19,PAKN,≤ 0.2
20,MTKA,≤ 0.2
21,CVLE,≤ 0.2
22,SIYY,≤ 0.2
23,RCYP,≤ 0.2
24,HDDR,≤ 0.2

row,Variant,one-hybrid fitness for binding parS DNA
1,AFMM,≤ 0.2
2,TVQN,≤ 0.2
3,HSWS,≤ 0.2
4,QQGL,≤ 0.2
5,AKTI,≤ 0.2
6,RCRI,≤ 0.2
7,GMHY,≤ 0.2
8,EGGR,≤ 0.2
9,EICG,≤ 0.2
10,FSWC,≤ 0.2
11,TETT,≤ 0.2
12,RPHL,≤ 0.2
13,DQSN,≤ 0.2
14,QKKR,≤ 0.2
15,DLYE,≤ 0.2
16,PMPG,≤ 0.2
17,CDCR,≤ 0.2
18,STVI,≤ 0.2
19,TAND,≤ 0.2
20,YYVC,≤ 0.2
21,PAFL,≤ 0.2
22,VMGC,≤ 0.2
23,MCSP,≤ 0.2
24,RTHC,0.978

row,Variant,one-hybrid fitness for binding parS DNA
1,PWMD,≤ 0.2
2,QPVK,≤ 0.2
3,DAAG,≤ 0.2
4,NYNS,≤ 0.2
5,CQAY,≤ 0.2
6,NYRD,≤ 0.2
7,YVTN,≤ 0.2
8,IPDV,≤ 0.2
9,DLST,≤ 0.2
10,DNDV,≤ 0.2
11,VVPD,≤ 0.2
12,KYQS,≤ 0.2
13,YVTH,≤ 0.2
14,ATQV,≤ 0.2
15,YVYG,≤ 0.2
16,HMCW,≤ 0.2
17,GCRG,≤ 0.2
18,ANFC,≤ 0.2
19,QFNV,≤ 0.2
20,TMAD,≤ 0.2
21,LPSN,≤ 0.2
22,HTYL,≤ 0.2
23,MWGR,≤ 0.2
24,QCNG,≤ 0.2

row,Variant,one-hybrid fitness for binding parS DNA
1,PDAY,≤ 0.2
2,LSCF,≤ 0.2
3,QPDY,≤ 0.2
4,YLEF,≤ 0.2
5,VSEC,≤ 0.2
6,TAGA,≤ 0.2
7,WKRC,≤ 0.2
8,HKAA,≤ 0.2
9,RKRW,≤ 0.2
10,QFAS,≤ 0.2
11,VDMR,≤ 0.2
12,PCGY,≤ 0.2
13,GSSC,≤ 0.2
14,DWLR,≤ 0.2
15,EITM,≤ 0.2
16,PNCA,≤ 0.2
17,DYWG,≤ 0.2
18,SFRA,≤ 0.2
19,CSPA,≤ 0.2
20,TDLR,≤ 0.2
21,DDNI,≤ 0.2
22,KTVM,≤ 0.2
23,TEHL,≤ 0.2
24,QAKS,≤ 0.2

row,Variant,one-hybrid fitness for binding parS DNA
1,NTSA,≤ 0.2
2,DFRR,≤ 0.2
3,RATD,≤ 0.2
4,THYV,≤ 0.2
5,ATPC,≤ 0.2
6,YYTI,≤ 0.2
7,PHYM,≤ 0.2
8,RASP,≤ 0.2
9,NNPV,≤ 0.2
10,YPEL,≤ 0.2
11,PEPH,≤ 0.2
12,HRRH,≤ 0.2
13,FKHM,≤ 0.2
14,RYTK,≤ 0.2
15,KKGS,≤ 0.2
16,RQFI,≤ 0.2
17,ACDK,≤ 0.2
18,LEKF,≤ 0.2
19,HIIR,≤ 0.2
20,PFHY,≤ 0.2
21,RLKP,≤ 0.2
22,KRCN,≤ 0.2
23,IYMT,≤ 0.2
24,VSKV,≤ 0.2

row,Variant,one-hybrid fitness for binding parS DNA
1,SVTW,≤ 0.2
2,ASWR,≤ 0.2
3,CCHG,≤ 0.2
4,HPLR,≤ 0.2
5,HTTG,≤ 0.2
6,WVPV,≤ 0.2
7,CHVR,≤ 0.2
8,HRVP,≤ 0.2
9,SDGY,≤ 0.2
10,PVKS,≤ 0.2
11,WDTY,≤ 0.2
12,PTNL,≤ 0.2
13,QKRW,≤ 0.2
14,AKWG,≤ 0.2
15,GNKF,≤ 0.2
16,RPEC,≤ 0.2
17,KTNY,≤ 0.2
18,ELHL,≤ 0.2
19,LSVG,≤ 0.2
20,AAQN,≤ 0.2
21,TTIR,≤ 0.2
22,MNMG,≤ 0.2
23,CRLS,≤ 0.2
24,EATF,≤ 0.2

row,Variant,one-hybrid fitness for binding parS DNA
1,DRSG,≤ 0.2
2,CSYL,≤ 0.2
3,SCWC,≤ 0.2
4,MYQS,≤ 0.2
5,RTSP,≤ 0.2
6,FDRS,≤ 0.2
7,DLLS,≤ 0.2
8,HRDG,≤ 0.2
9,AQHG,≤ 0.2
10,SENR,≤ 0.2
11,SRLH,≤ 0.2
12,LATF,≤ 0.2
13,LGYW,≤ 0.2
14,GCYS,≤ 0.2
15,PASM,≤ 0.2
16,RPCA,≤ 0.2
17,GMLT,≤ 0.2
18,NGIA,≤ 0.2
19,DTEI,≤ 0.2
20,NKRM,≤ 0.2
21,RVRS,0.895
22,DNNN,≤ 0.2
23,DNSI,≤ 0.2
24,VGHC,≤ 0.2

row,Variant,one-hybrid fitness for binding parS DNA
1,RSFT,0.751
2,KTMM,≤ 0.2
3,SPES,≤ 0.2
4,SDLR,≤ 0.2
5,NCPG,≤ 0.2
6,TVAS,≤ 0.2
7,PGSA,≤ 0.2
8,SVTK,≤ 0.2
9,FNRH,≤ 0.2
10,LVVI,≤ 0.2
11,FREG,≤ 0.2
12,LVRT,≤ 0.2
13,CNQG,≤ 0.2
14,TWKW,≤ 0.2
15,VLPN,≤ 0.2
16,PAST,≤ 0.2
17,WTDV,≤ 0.2
18,QVTE,≤ 0.2
19,GDQE,≤ 0.2
20,QACH,≤ 0.2
21,RWGT,0.548
22,VTRL,≤ 0.2
23,RILI,≤ 0.2
24,MESR,≤ 0.2

row,Variant,one-hybrid fitness for binding parS DNA
1,AVKF,≤ 0.2
2,CAGS,≤ 0.2
3,QSQL,≤ 0.2
4,LTVF,≤ 0.2
5,PFYV,≤ 0.2
6,CDPV,≤ 0.2
7,RREG,0.915
8,CKPA,≤ 0.2
9,IKKT,≤ 0.2
10,MVPF,≤ 0.2
11,TTGL,≤ 0.2
12,ETNN,≤ 0.2
13,SCHG,≤ 0.2
14,STMV,≤ 0.2
15,KRHC,≤ 0.2
16,TRRS,≤ 0.2
17,HYKS,≤ 0.2
18,VMWR,≤ 0.2
19,IAKK,≤ 0.2
20,SRSW,≤ 0.2
21,MTHD,≤ 0.2
22,DGNV,≤ 0.2
23,TAPW,≤ 0.2
24,RCWI,0.301

row,Variant,one-hybrid fitness for binding parS DNA
1,CNLA,≤ 0.2
2,SGGR,≤ 0.2
3,LNQT,≤ 0.2
4,QKFR,≤ 0.2
5,AQWT,≤ 0.2
6,SLSG,≤ 0.2
7,PGPA,≤ 0.2
8,PTSN,≤ 0.2
9,WHGS,≤ 0.2
10,RDCC,≤ 0.2
11,VNDL,≤ 0.2
12,MDTS,≤ 0.2
13,YVLC,≤ 0.2
14,VVSG,≤ 0.2
15,DSTW,≤ 0.2
16,TDEP,≤ 0.2
17,WEHR,≤ 0.2
18,WSWD,≤ 0.2
